In PubChem BioAssay AID504339 (National Center for Advancing Translational Sciences (NCATS), 2011):
Hit rate of the full screen: of about 390,000 compounds, about 17,000 (4.4%) were called active. This list was built around the results that the source calls inconclusive (neither active nor inactive); the mix of calls is not that of the screen. Calls follow the shape of the dose curve; as a rule, active = well fitted inhibition curve with a large enough effect; inconclusive = small, poorly fitted or top-dose-only effect; inactive = no such curve, though single readings can be large or run the other way. Potencies beside an inconclusive call are fits to weak or partial responses and may not hold up.

The compounds below were run against Lysine-specific demethylase 4A (Homo sapiens) (UniProt O75164) (assay: qHTS Assay for Inhibitors of JMJD2A-Tudor Domain). Details: AlphaScreen JMJD2A-Tudor / H3K4me3 peptide binding; series mostly up to 114 µM.
UniProt O75164, sequence (O75164 whole entry, looked up, the tested form may be a part): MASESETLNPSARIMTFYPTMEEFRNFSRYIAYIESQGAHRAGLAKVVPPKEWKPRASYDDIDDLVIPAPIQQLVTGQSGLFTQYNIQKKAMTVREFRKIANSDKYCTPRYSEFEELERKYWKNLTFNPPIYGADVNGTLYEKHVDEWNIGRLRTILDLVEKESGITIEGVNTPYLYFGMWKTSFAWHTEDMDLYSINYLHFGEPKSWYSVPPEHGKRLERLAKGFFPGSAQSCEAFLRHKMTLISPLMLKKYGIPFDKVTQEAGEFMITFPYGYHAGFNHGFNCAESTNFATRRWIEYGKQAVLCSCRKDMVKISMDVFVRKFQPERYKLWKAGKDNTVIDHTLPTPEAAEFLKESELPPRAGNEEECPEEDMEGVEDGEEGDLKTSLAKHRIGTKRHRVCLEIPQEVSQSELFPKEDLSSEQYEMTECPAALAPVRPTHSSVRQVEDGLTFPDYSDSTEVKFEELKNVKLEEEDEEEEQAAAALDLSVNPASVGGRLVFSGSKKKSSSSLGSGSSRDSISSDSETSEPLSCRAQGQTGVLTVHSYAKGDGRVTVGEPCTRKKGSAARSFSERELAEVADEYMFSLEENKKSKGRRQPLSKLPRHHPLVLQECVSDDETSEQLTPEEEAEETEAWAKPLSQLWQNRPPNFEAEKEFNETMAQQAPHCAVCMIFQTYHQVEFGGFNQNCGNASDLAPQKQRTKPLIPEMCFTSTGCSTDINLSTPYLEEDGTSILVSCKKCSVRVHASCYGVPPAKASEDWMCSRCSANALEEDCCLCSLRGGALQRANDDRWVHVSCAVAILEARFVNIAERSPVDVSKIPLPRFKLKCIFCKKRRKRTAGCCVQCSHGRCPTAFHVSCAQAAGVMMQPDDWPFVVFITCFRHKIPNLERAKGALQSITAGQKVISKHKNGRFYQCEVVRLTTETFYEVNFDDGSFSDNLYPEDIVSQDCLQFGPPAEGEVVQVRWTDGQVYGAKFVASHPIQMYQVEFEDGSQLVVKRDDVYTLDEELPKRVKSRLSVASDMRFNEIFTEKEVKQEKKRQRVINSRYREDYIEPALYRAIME
Also: nearly all actives have a fitted effect of over 50% in size.
Potency is read from the fitted curve at half-maximal effect; tags tell the direction and shape of the fitted curve.

Potency, active:
COc1ccc(NCc2nnc(SCc3ccc(Cl)cc3)n2-c2ccccc2)cc1 44.7 µM
CCOCCCNCC(=O)Nc1ccc(OC(F)(F)F)cc1 39.8 µM
CCOCCOc1cc(NCc2ccccc2)c2ncn(C(C)C)c2c1 10 µM
COc1ccc(-c2cc(C(=O)N3CCN(Cc4ccc5c(c4)OCO5)CC3)on2)cc1OC 20 µM
Cc1cccc(-c2ncc(CN3CCN(CC(C)C)C(CCO)C3)cn2)c1 (stereo not given) 17.8 µM
Brc1cccc(OCCn2ccnc2)c1 3.55 µM

Potency, inconclusive:
Cc1nc2ccccn2c1/C(O)=C1\C(=O)C(=O)N(CCCn2ccnc2)C1c1ccncc1 (stereo not given) 79.4 µM [inhibitor, partial curve]
CCCCCN=C(N)N/N=C/c1c[nH]c2ccc(OC)cc12 50.1 µM [inhibitor, partial curve]
Cc1ccc(NC(=S)c2nc3ccccc3s2)cc1 6.31 µM [inhibitor, full curve, poor fit]
CC(=O)Nc1sc2c(c1C(c1ccc(F)cc1)N1CCOCC1)CCCC2 (stereo not given) 50.1 µM [inhibitor, partial curve]
COc1ccc(-c2ccc(/C=N/NC(=O)c3cccnc3)o2)c([N+](=O)[O-])c1 89.1 µM [inhibitor, single point]
O=C(NC(=S)N1CCc2ccccc21)c1ccccc1 63.1 µM [inhibitor, partial curve, poor fit]
O=C(C1=C[C@H](C2CCCCC2)C[C@H](OCc2ccc(CO)cc2)O1)N1CCN(Cc2ccc3c(c2)OCO3)CC1 44.7 µM [inhibitor, partial curve]
O=C(COC(=O)C1CC2C=CC1C2)Nc1ccccc1[N+](=O)[O-] (stereo not given) 44.7 µM [inhibitor, partial curve]
O=C(c1ccc(-c2cccc(C(F)(F)F)c2)o1)N1CCN(c2ccccc2O)CC1 25.1 µM [inhibitor, full curve]
COc1ccc(-c2ccc(/C=C3/C(=N)N4C(C)=CSC4=NC3=O)o2)c([N+](=O)[O-])c1 50.1 µM [inhibitor, partial curve]
CCN(CC)C(=O)[C@H]1C[C@H](CC(=O)NCc2ccc(OC)c(OC)c2)C(=O)N2CCc3c([nH]c4cc(-c5ccco5)ccc34)[C@]12C 44.7 µM [inhibitor, partial curve]
C=CCOc1ccccc1C(=O)/C=C1/C(=O)Nc2ccccc21 17.8 µM [inhibitor, partial curve]
Cc1cc2cc(CNC(=S)Nc3ccc(OC(F)F)cc3)ccc2[nH]1 35.5 µM [inhibitor, full curve]
O=C(c1nc2ccc(Cl)cn2c1CN1CCCC1)N1CCc2ccccc2C1 50.1 µM [inhibitor, partial curve]
O=C(CCl)Nc1ccccc1Sc1ccccc1 79.4 µM [inhibitor, single point]
CCCC1=C/C(=C/c2ccc(-c3ccccc3OC)o2)C(=O)O1 56.2 µM [inhibitor, partial curve]
Cc1cc(C(=O)CSc2nc(N)cc(N)n2)c(C)n1C1CC1 56.2 µM [inhibitor, partial curve]
COc1cc(Cl)cc(C(=O)O)c1OCC(=O)O 89.1 µM [inhibitor, partial curve]
Cc1ccc2ccc3c(c2n1)NS(=O)(=O)c1ccccc1-3 31.6 µM [inhibitor, single point]
CCn1c(SCc2ccccc2)nc2c(c1=O)SCC2 50.1 µM [inhibitor, partial curve]
CC(=O)c1ccc(Nc2cc(C)nc3ncnn23)cc1 31.6 µM [inhibitor, single point]
COc1cccc(OCC(O)CN2CCN(CCN3C(=O)c4cccc5cccc(c45)C3=O)CC2)c1 (stereo not given) 56.2 µM [inhibitor, partial curve, poor fit]
O=[N+]([O-])c1c(Nc2cccc(O)c2)cc(Cl)c2nonc12 39.8 µM [inhibitor, partial curve]
COc1ccccc1CNC(=O)c1ccc(N2CCOCC2)c([N+](=O)[O-])c1 89.1 µM [inhibitor, partial curve]
NC(=O)/C(N=Nc1ccccc1)=N/Nc1ccccc1 79.4 µM [inhibitor, single point]
Cc1ccc(C)c(N2CCN(CC(=O)Nc3ccc([N+](=O)[O-])cc3C(=O)Nc3ccccc3F)CC2)c1 25.1 µM [inhibitor, full curve, poor fit]
O=C(COC(=O)c1ccc([N+](=O)[O-])s1)Nc1ncc(C(F)(F)F)cc1Cl 56.2 µM [inhibitor, partial curve]

Potency, inactive:
CC(=O)Nc1ccc(-c2csc(Nc3cccc(C)n3)n2)cc1
COCCn1c(C)cc(O)c(C(c2ccccc2Cl)N2CCN(c3ccccc3)CC2)c1=O (stereo not given)
COc1cccc(OC)c1C(=O)Nc1cccc(C(C)=O)c1
C[C@H](CO)N1C[C@H](C)[C@@H](CN(C)Cc2ccc3c(c2)OCO3)Oc2c(NC(=O)Cc3ccccc3)cccc2C1=O
CCOCCCNC(=O)C(NC(=O)c1ccccn1)c1ccc(C)cc1 (stereo not given)
CCCCn1nc2cc(C(=O)NCc3ccco3)ccc2c1OCC
CCCn1nnnc1NCc1ccc(SC)cc1
CN1CCN(c2ccccc2NC(=O)c2cc3c(s2)-c2ccccc2OC3)CC1
Cc1nc(Nc2ccc(Cl)cc2)c(C#N)c(=O)[nH]1
COc1ccc(CCNC(=O)C2(C)CCC(=O)N2Cc2ccc(C)cc2)cc1OC (stereo not given)
COC(=O)c1sccc1-c1ccc(/C=N/OC(=O)c2ccccc2)o1
COc1ccc(S(=O)(=O)N(CC(=O)NCCc2ccccc2)c2ccc(Cl)cc2)cc1
